B1: LINE1-mini (parent)
chain: GGCAGAGCUCAACACAGCGUGGCAAAGUGGCUGUGGCUAGACUGCC

The source gives no read counts; variants with many changes may rest on few reads.

The variants in the data set derive from B1. In words: self-cleavage, relative activity (ratio to wild type); higher = more cleavage; in vitro, sequencing; the parent is a self-cleaving ribozyme.
As to GGCAGAGCUCAACACAGCGUGGCAAGGUGGAUGUGGCUAGAUUGCC, the self-cleavage was found to be 0.02.
In the case of GGCAGAGCUCAACACAGCGUGGCUAAGUGGCCCUGGCUAGACUGCC it was 0.03; in that of GGCAGAGCUCAACACAGCGUGGCAGAGUGGCUGUGCCUAGACCGCC, 0.02.
In the case of GGCAGAGCUCAACACAGCGUGGCAUAGAGCCUGUGGCUAGACUGCC it was 1.59.
In the case of GGCAGAGCUCAACACAGCGUGGCUAAGAGGCUGUGGCAAGACUGCC it was 0.18; in that of GGCAGAGCUCAACACAGCGUGGCUAAGUGGCUGUGGCAAGACGGCC, 0.01.
Regarding GGCAGAGCUCAACACAGCGUGGCAAGGCGGCUGUGUCUAGACUGCC, the self-cleavage turned out to be 0.03.
In the case of GGCAGAGCUCAACACAGCGUGGCAGAGUGUCUGAGGCUAGAGAGCC it was 0.01; in that of GGCAGAGCUCAACACAGCGUGGCAACGUGGCUCUGGCUCGACUGCC, 0.04; in that of GGCAGAGCUCAACACAGCGUGGCAUAUUGGCUGUGGCUAGACUGAC, 1.54.
On to GGCAGAGCUCAACACAGCGUGGCACAGUGGCGGUGGCUAGACUACC, for which the self-cleavage came to 0.04.
In the case of GGCAGAGCUCAACACAGCGUGGCACAGUGGCUGCGGCUAGACUCCC it was 0.03; in that of GGCAGAGCUCAACACAGCGUGGCACAGUGGCUGUGGCUAGACUCAC, 0.13; in that of GGCAGAGCUCAACACAGCGUGGCAGAGUGGCCUUGGCUAGACUGCC, 0.05.
In the case of GGCAGAGCUCAACACAGCGUGGCAUAGUGGCUGGGGCUAGUCUGCC it was 0.06.
In the case of GGCAGAGCUCAACACAGCGUGGCAACGUGGCUGUGACUAGACUGCU, the self-cleavage came to 0.12.
In the case of GGCAGAGCUCAACACAGCGUGGCACAGUGGUUCUGGCUAGACUGCC it was 0.03; in that of GGCAGAGCUCAACACAGCGUGGCAUAGUGGCUCUAGCCAGACUGCC, 0.03.
In the case of GGCAGAGCUCAACACAGCGUGGCAUAGUCGCUGCGGCUAGACUGCC it was 0.13; in that of GGCAGAGCUCAACACAGCGUGGCACCGUGGCUGUGGCUAGACUGCU, 0.84; in that of GGCAGAGCUCAACACAGCGUGGCAGAGUGGCUGUGGCUAGGCUUCC, 0.06.
In the case of GGCAGAGCUCAACACAGCGUGGCACAGUGGCUUUGGCUAGACUACC it was 0.02; in that of GGCAGAGCUCAACACAGCGUGGCAAGGUGGCUGUGGCUAGACUGAG, 0.18.
GGCAGAGCUCAACACAGCGUGGCAGAGUGGCUGUGGCUGGCCUGCC: the self-cleavage was 0.04.
In the case of GGCAGAGCUCAACACAGCGUGGCAACGUUGAAGUGGCUAGACUGCC it was 0.06; in that of GGCAGAGCUCAACACAGCGUGGCAACGUGGCCGUGGCUAGAUUGCC, 0.11.
In the case of GGCAGAGCUCAACACAGCGUGGCAAGGUGGCUGUGCCUAGACUGCA it was 0.05.
In the case of GGCAGAGCUCAACACAGCGUGGCACAGUGGGUGUGGCCAGACUGCC it was 0.01; in that of GGCAGAGCUCAACACAGCGUGGCAUAGUGGAUGUGACUAGACUGCC, 0.17.
In the case of GGCAGAGCUCAACACAGCGUGGCAACGUGGUUGUGGCUAGACUGCA, the self-cleavage stood at 0.04.
In the case of GGCAGAGCUCAACACAGCGUGGCACAGUGGCUGAGGCUAGAGUGCC it was 0.16; in that of GGCAGAGCUCAACACAGCGUGGCAAGGUGGCUGUGGCUCGAAUGGC, 0.04; in that of GGCAGAGCUCAACACAGCGUGGCACAGUGGCUAUGGCUAGAUUGUC, 0.03.
In the case of GGCAGAGCUCAACACAGCGUGGCAUACUGGAUGUGGCUAGACUGCC it was 0.3; in that of GGCAGAGCUCAACACAGCGUGGCAACGUGGCUGCGGCAAGACUGCC, 0.06; in that of GGCAGAGCUCAACACAGCGUGGCAAGGAGGCUGUGGCCAGGCUGCC, 0.04.
On to GGCAGAGCUCAACACAGCGUGGCAACGUGGCUCUAGCUAGACUGCC, for which the self-cleavage was found to be 0.06.
In the case of GGCAGAGCUCAACACAGCGUGGCAGAGUCGCUGUGGCUAGUCUGCC it was 0.02; in that of GGCAGAGCUCAACACAGCGUGGCACAUUGGAUUUGGCUAGACUGCC, 0.16; in that of GGCAGAGCUCAACACAGCGUGGCAACAUGGCUGUGGCUAGACUGUG, 0.21.
In the case of GGCAGAGCUCAACACAGCGUGGCACAGUGGCUGUAGAUAGAAUGCC it was 0.05.
Take GGCAGAGCUCAACACAGCGUGGCAGAGUGGCAGUGGGUAGACUGCA: the self-cleavage amounted to 0.
In the case of GGCAGAGCUCAACACAGCGUGGCAACGCGGCUGUGGCUAGACGGCC it was 0; in that of GGCAGAGCUCAACACAGCGUGGCACAGUGGCUGUGGCAAGAAUGCG, 0.03.
GGCAGAGCUCAACACAGCGUGGCACCGUGCCUGUGGCUAGACUGCC: the self-cleavage worked out at 1.29.
In the case of GGCAGAGCUCAACACAGCGUGGCAGUGAGGCUGUGGCUAGAAUGCA it was 0.03.
In the case of GGCAGAGCUCAACACAGCGUGGCAUAGUGGUUGUUGCUAGACUGAC it was 0.01; in that of GGCAGAGCUCAACACAGCGUGGCACAGUGGCUGUGGCUAUACUACC, 0.01.
On to GGCAGAGCUCAACACAGCGUGGCAUAGUAGCUGUGACUAGACUGCC, for which the self-cleavage is 0.04.
Consider GGCAGAGCUCAACACAGCGUGGCAGAGUAGCUGUGGGUAGACUGCC, for which the self-cleavage was 0.02.
GGCAGAGCUCAACACAGCGUGGCAUGGUGGCUGUAGCUAGACUGCC: the self-cleavage was 0.19.
In the case of GGCAGAGCUCAACACAGCGUGGCAGCGUGGCUGUGGCUAGACUGCA it was 0.71.
In the case of GGCAGAGCUCAACACAGCGUGGCAAGGUGGCUUGGGCUAGACUGCC it was 0.02; in that of GGCAGAGCUCAACACAGCGUGGCAACUCGUCUGUGGCUUGACUGCA, 0.1.
In the case of GGCAGAGCUCAACACAGCGUGGCACAGUGGCUGUGGUUAGACUCCC it was 0.04; in that of GGCAGAGCUCAACACAGCGUGGCAACGUGGCUGUGUCAAUACUGCC, 0.03.

The record behind these values is the RNAGym collection of RNA variant scans (doi:10.7554/elife.90254).
